Results as given in PubChem BioAssay AID488969 (Vanderbilt High Throughput Screening Facility, 2010).
The full ranking holds about 110,000 compounds; the median of “z-score” is about -0.1, and the highest 2% start at about 2. The list shows a part of the results. Activity calls are given as the source filed them.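 How the source made its calls: active means z-score in the third read window above 3 or below -3; inactive means the rest.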

target: Metabotropic glutamate receptor 8 (Rattus norvegicus) (UniProt P70579); assay: rat mGluR8 modulators via GIRK flux, primary screen, cell-based, thallium flux, HTS (AID 488969); conditions: HEK293 rat mGluR8, GIRK (G protein-gated inwardly rectifying potassium channel) thallium flux, FluoZin2; at 10 µM; stronger effect = higher value; submaximal glutamate (EC20) added with thallium
Chain of UniProt P70579 (P70579 whole entry, looked up): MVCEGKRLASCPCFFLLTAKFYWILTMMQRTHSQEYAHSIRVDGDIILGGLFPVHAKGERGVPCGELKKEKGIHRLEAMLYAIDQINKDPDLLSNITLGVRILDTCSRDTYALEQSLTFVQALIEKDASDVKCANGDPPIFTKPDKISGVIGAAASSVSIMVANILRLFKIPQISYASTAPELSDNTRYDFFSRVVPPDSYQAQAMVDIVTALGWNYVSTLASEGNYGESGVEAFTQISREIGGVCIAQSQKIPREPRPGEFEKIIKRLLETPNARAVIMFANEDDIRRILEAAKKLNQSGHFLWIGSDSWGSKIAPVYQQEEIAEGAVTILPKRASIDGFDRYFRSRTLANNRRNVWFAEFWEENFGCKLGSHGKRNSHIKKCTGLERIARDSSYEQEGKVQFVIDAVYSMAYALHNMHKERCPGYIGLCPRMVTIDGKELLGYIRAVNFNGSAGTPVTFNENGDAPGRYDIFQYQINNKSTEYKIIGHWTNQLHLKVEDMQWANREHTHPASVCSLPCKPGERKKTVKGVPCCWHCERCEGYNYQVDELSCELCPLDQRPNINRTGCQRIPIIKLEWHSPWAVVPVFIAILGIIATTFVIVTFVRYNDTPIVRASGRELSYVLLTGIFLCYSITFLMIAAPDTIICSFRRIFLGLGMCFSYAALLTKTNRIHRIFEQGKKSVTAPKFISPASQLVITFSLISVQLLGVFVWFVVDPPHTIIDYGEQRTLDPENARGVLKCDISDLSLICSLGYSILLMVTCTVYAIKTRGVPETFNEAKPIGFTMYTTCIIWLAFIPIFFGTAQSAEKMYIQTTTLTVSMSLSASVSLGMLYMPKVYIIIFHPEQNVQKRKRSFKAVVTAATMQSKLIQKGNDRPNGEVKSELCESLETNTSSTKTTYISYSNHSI

**Q.** For CCC(CC)C1=NN2C(=N)/C(=C\c3cc(C)n(-c4cccc(C)c4)c3C)C(=O)N=C2S1, which z-score is on record?
**A.** Its z-score is 0.818.

**Q.** With c1cc2c3c(cccc3c1)C(N1CCCCCC1)=N2 as the compound, how does the z-score read?
**A.** Its z-score is 0.822.

**Q.** Which z-score does the source give for Cc1ccc(C)c(OCCCN2CCCC2)c1 here?
**A.** Its z-score is 0.12.

**Q.** How did the z-score turn out when Cc1ccc(/C=N/NC(=O)Cn2cnc3ccccc32)o1 was run?
**A.** The z-score was 0.381.

**Q.** Which z-score does the source give for O=c1onc(-c2cccs2)n1Cc1ccccc1 here?
**A.** Its z-score is -0.199.

**Q.** With COc1ccc(-c2ccc(-c3noc(-c4ccccc4)n3)c(OC)n2)cc1 as the compound, how does the z-score read?
**A.** Its z-score is -0.311.

**Q.** With O=C(Nc1cc(C(F)(F)F)ccc1N1CCOCC1)c1cccnc1 as the compound, how does the z-score read?
**A.** The z-score was 0.396.

**Q.** CCOc1ccc(S(=O)(=O)N(C)c2ccc(OCC(=O)N3CCOCC3)cc2)cc1 was tested. Which z-score did it give?
**A.** Its z-score is -0.25.

**Q.** For Nc1ncnc(N(c2ccccc2)C2CCCCC2)c1[N+](=O)[O-], which z-score is on record?
**A.** The z-score was -0.0729.

**Q.** Which z-score does the source give for COc1ccc(C(=O)NNC(=O)c2ccncc2)cc1 here?
**A.** The z-score was 1.57.

**Q.** Which z-score does the source give for COc1cc(N(C(=O)Cc2cccs2)C(C(=O)NC2CCCCC2)c2ccc(C)cc2)ccc1-n1cnnn1 (stereo unspecified) here?
**A.** Its z-score is 0.0695.

**Q.** How did the z-score turn out when COc1ccc(C(NC(=O)N2CC(C)OC(C)C2)C(Cl)(Cl)Cl)cc1F (stereo unspecified) was run?
**A.** The z-score was -0.3.

**Q.** How did the z-score turn out when O=C(CC(NC(=O)c1ccccc1)c1ccccc1)Nc1cccc2ccccc12 (stereo unspecified) was run?
**A.** Its z-score is -0.0391.

**Q.** Which z-score does the source give for CNc1oc(-c2ccc(C)cc2)nc1P(=O)(c1ccccc1)c1ccccc1 here?
**A.** Its z-score is -1.27.

**Q.** With CC(Cc1ccccc1)NC(=O)/C=C/c1ccc([N+](=O)[O-])cc1 (stereo unspecified) as the compound, how does the z-score read?
**A.** Its z-score is -0.199.

**Q.** Which z-score does the source give for Cc1ccc(C)c(C(=O)Cn2ncc(Cl)c(Cl)c2=O)c1 here?
**A.** The z-score was 0.8.

**Q.** With CCn1c(CNc2ccc(Cl)cc2)nnc1SCc1ccccc1 as the compound, how does the z-score read?
**A.** Its z-score is -0.438.

**Q.** Which z-score does the source give for CN(C)c1ccc(C(=O)/C=C/c2ccc(Br)cc2)cc1 here?
**A.** The z-score was 0.0539.

**Q.** With Cc1ccc(/C=C/C(=O)Nc2sc(C)c(C)c2C(=O)OC(C)C)o1 as the compound, how does the z-score read?
**A.** The z-score was -0.328.

**Q.** How did the z-score turn out when CC(C)(C)C(=O)NC(=S)NNC(=O)c1sc2ccccc2c1Cl was run?
**A.** Its z-score is active: 13.7.

**Q.** How did the z-score turn out when CC(C)OP(=O)(OC(C)C)C(O)c1ccc2c(c1)OCO2 (stereo unspecified) was run?
**A.** The z-score was -0.272.

**Q.** Which z-score does the source give for O=C(O)C1C2C=CC(O2)C1C(=O)Nc1ccc(S(=O)(=O)N2CCc3ccccc32)cc1 (stereo unspecified) here?
**A.** The z-score was -0.0204.

**Q.** For O=c1cc(CO)oc(C(Nc2ccccn2)c2ccc(C(F)(F)F)cc2)c1O (stereo unspecified), which z-score is on record?
**A.** Its z-score is 0.285.

**Q.** How did the z-score turn out when Cc1nn(S(=O)(=O)c2cccs2)c(C)c1Sc1ccc([N+](=O)[O-])cc1 was run?
**A.** Its z-score is -0.00271.

**Q.** With Cc1c(NC(=O)OCCSc2nc(N(C)C)nc(N(C)C)n2)sc(=S)n1C as the compound, how does the z-score read?
**A.** The z-score was -0.259.

**Q.** Which z-score does the source give for Cn1c2ccc(CC(=O)O)cc2c2cc(CC(=O)O)ccc21 here?
**A.** Its z-score is -0.262.

**Q.** Which z-score does the source give for COc1ccc(C(=O)C[n+]2ccc3c(c2)nc(-c2ccccc2)n3C)cc1 here?
**A.** The z-score was 0.249.

**Q.** Cn1nccc1C(=O)Nc1ccc(OC(=O)c2ccnn2C)cc1 was tested. Which z-score did it give?
**A.** Its z-score is 0.139.

**Q.** For Cc1cc(C)c(-c2cc(C(F)(F)F)no2)c(=O)[nH]1, which z-score is on record?
**A.** Its z-score is 0.0168.

**Q.** O=[N+]([O-])c1ccccc1S(=O)(=O)N1CCCCC1 was tested. Which z-score did it give?
**A.** The z-score was 0.536.

**Q.** For CCN(CC)CCn1c(NCc2ccc(OC)cc2)nc2ccccc21, which z-score is on record?
**A.** Its z-score is 0.937.

**Q.** Which z-score does the source give for CC(=Nc1ccc(C)cc1)c1sc2ccccc2c1O here?
**A.** Its z-score is 0.0505.

**Q.** How did the z-score turn out when CCOC(=O)N1CCC2(O)CCCCC2C1c1ccc(F)cc1 (stereo unspecified) was run?
**A.** Its z-score is -0.478.

**Q.** Which z-score does the source give for Cc1ccc(C(=O)CC(=O)COc2ccc(Cl)cc2)cc1 here?
**A.** The z-score was active: 5.07.

**Q.** How did the z-score turn out when COc1ccc(C(=O)Oc2ccc3c(c2)OCO3)cc1OC was run?
**A.** The z-score was 0.246.

**Q.** With C=CCNC(=S)N/N=C(\C)c1cc(OC)c(OC)c(OC)c1 as the compound, how does the z-score read?
**A.** Its z-score is -0.183.

**Q.** Which z-score does the source give for CC(C)Cn1c(-c2ccc(F)cc2)n[nH]c1=S here?
**A.** The z-score was 0.522.

**Q.** Which z-score does the source give for COc1ccc(NC(=O)c2ccc(F)cc2)cc1S(=O)(=O)Nc1cc(C)ccc1Br here?
**A.** The z-score was 0.11.

**Q.** Which z-score does the source give for Clc1ccc(Cn2ncc3c(N4CCCC4)ncnc32)cc1 here?
**A.** The z-score was -0.709.

**Q.** How did the z-score turn out when O=C1CN(C(=O)COc2ccccc2F)c2ccccc2N1 was run?
**A.** The z-score was -0.0686.

**Q.** CCC(c1nc2ccccc2c(=O)n1CCCn1ccnc1)N1C(=O)c2ccccc2C1=O (stereo unspecified) was tested. Which z-score did it give?
**A.** Its z-score is 0.431.

**Q.** Which z-score does the source give for CCOC(=O)C1=C(C)NC(=O)C1(NC(=O)c1cccnc1)C(F)(F)F (stereo unspecified) here?
**A.** The z-score was -0.663.

**Q.** With CCc1ccc(/C=C/C(=O)C2C(=O)c3ccccc3C2=O)cc1 as the compound, how does the z-score read?
**A.** Its z-score is active: 3.92.

**Q.** How did the z-score turn out when COc1ccccc1C1C2=C(COC2=O)Nc2cc3c(cc21)OCO3 (stereo unspecified) was run?
**A.** The z-score was -0.0142.

**Q.** Cn1cccc1CC(=O)N/N=C\c1c2ccccc2cc2ccccc12 was tested. Which z-score did it give?
**A.** Its z-score is -0.172.

**Q.** How did the z-score turn out when Cc1ccc(C(=O)Nc2cc([N+](=O)[O-])ccc2F)s1 was run?
**A.** Its z-score is 0.0378.

**Q.** CCOCCCn1c(SCC(=O)NC(C)C)nc2ccccc2c1=O was tested. Which z-score did it give?
**A.** The z-score was 0.328.

**Q.** With CCc1ccccc1N(C)C(=O)CCc1nc(-c2ccc(C)cc2)no1 as the compound, how does the z-score read?
**A.** The z-score was 2.44.

**Q.** With O=C(CCCOc1ccc(Cl)cc1Cl)NN1CCOCC1 as the compound, how does the z-score read?
**A.** The z-score was -0.177.

**Q.** For COc1ccc(Br)cc1/C=C/C(=O)Nc1ccc(C)cc1, which z-score is on record?
**A.** The z-score was -0.218.

**Q.** With Cc1nn2cc(-c3ccc(Cl)cc3)nc2s1 as the compound, how does the z-score read?
**A.** Its z-score is -0.0344.

**Q.** For C/C(=C(\C#N)C(=O)NCc1ccccc1)N(C)C, which z-score is on record?
**A.** Its z-score is -0.0804.

**Q.** With O=C(Nc1cc(N2CCOCC2)ncn1)Nc1cccc2ccccc12 as the compound, how does the z-score read?
**A.** Its z-score is 0.125.

**Q.** With O=C(COC(=O)c1ccc(S(=O)(=O)Nc2ccccc2)cc1)NCCN1C(=O)CSC1=O as the compound, how does the z-score read?
**A.** Its z-score is 0.478.

**Q.** How did the z-score turn out when O=S(=O)(N/N=C/c1cccc(OC2CSC2)c1)c1ccccc1 was run?
**A.** The z-score was -0.554.

**Q.** For COc1ccc(-c2c(C)nn3c(N4CCC5(CC4)OCCO5)cc(C)nc23)cc1OC, which z-score is on record?
**A.** Its z-score is -0.26.

**Q.** How did the z-score turn out when CCCCOc1ccc(C2(C(=O)O)CCCC2)cc1 was run?
**A.** The z-score was -0.112.

**Q.** O=C(NCc1nc2ccccc2[nH]1)c1ccco1 was tested. Which z-score did it give?
**A.** Its z-score is -0.132.

**Q.** How did the z-score turn out when O=C(Nc1ccccc1Cl)c1ccccc1Oc1ccc(C(F)(F)F)cc1[N+](=O)[O-] was run?
**A.** The z-score was -0.11.

**Q.** How did the z-score turn out when CC1CCN(S(=O)(=O)N2CCC(C(=O)N3CCC(N(C)CC4CCCO4)CC3)CC2)CC1 (stereo unspecified) was run?
**A.** The z-score was -0.0208.

**Q.** With O=C(OCC(=O)c1ccccc1Br)c1ccccn1 as the compound, how does the z-score read?
**A.** Its z-score is 0.583.

**Q.** COc1ccccc1CNC(=O)c1c(-c2ccccc2)nn(-c2ccccc2)c1C was tested. Which z-score did it give?
**A.** The z-score was -0.592.

**Q.** O=C(COc1ccccc1)Nc1ccc(S(=O)(=O)N2CCCCCC2)cc1 was tested. Which z-score did it give?
**A.** The z-score was 0.0536.

**Q.** How did the z-score turn out when Cc1ccc(-c2nc(N)n(C(=O)c3cccnc3)n2)cc1 was run?
**A.** Its z-score is 0.477.

**Q.** With C=C(C)C1CC=C(C)/C(=N/NC(=O)c2ccc(NC(=O)CC)cc2)C1 (stereo unspecified) as the compound, how does the z-score read?
**A.** Its z-score is -0.376.

**Q.** COc1ccc(CCNC(=O)CCC2COc3ccccc3O2)cc1OC (stereo unspecified) was tested. Which z-score did it give?
**A.** Its z-score is -0.187.

**Q.** Which z-score does the source give for O=C(N=C1c2ccccc2CN1c1ccc(F)cc1)c1ccc(Cl)nc1 here?
**A.** The z-score was -0.285.

**Q.** For O=C(CCCc1c[nH]c2ccccc12)N1CCN(S(=O)(=O)c2cccs2)CC1, which z-score is on record?
**A.** The z-score was -0.212.

**Q.** For O=C/C(=C\Nc1ccc(Cl)cn1)c1nc2ccccc2o1, which z-score is on record?
**A.** Its z-score is 0.831.

**Q.** COc1cccc(-c2nc(N3CCN(c4ccccc4)CC3)c3ccccc3n2)c1O was tested. Which z-score did it give?
**A.** The z-score was -0.347.

**Q.** COC(=O)CCCNC(=O)OCc1ccc([N+](=O)[O-])cc1 was tested. Which z-score did it give?
**A.** The z-score was -0.0181.
